Reference: PubChem BioAssay AID651820 (National Center for Advancing Translational Sciences (NCATS), 2012)
Hit rate of the full screen: of about 340,000 compounds, about 12,000 (3.5%) were called active. Inconclusive results, whose numbers are uncertain, are shown with a selection of clear calls. The call rests on the fitted dose curve; in most records, active means well fitted inhibition curve with a large enough effect; inconclusive means small, poorly fitted or top-dose-only effect, or another doubt; inactive means no such curve, though single readings can be large or run the other way. No potency is given beside an inconclusive call; the fits are too rough.

experiment: qHTS Assay for Inhibitors of Hepatitis C Virus (HCV); settings: Huh7.5.1 HCVcc-Cre (HCVcc is cell-culture hepatitis C virus) infection, luciferase reporter, 44 h; activity change, negative = inhibition: at 41.8 µM (top of the series) unless noted
Procedure, shortened: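 Whole-lifecycle infectious HCVcc-Cre system; cells 1,000/well, compound then virus (~0.5 moi) added 4 h after plating, 44 h culture. Luciferase read 15 sec following 15 min substrate incubation, room temp.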
On the % scale 0 is the no-effect control and ±100 the full control effect; potency means the concentration at half of the fitted maximal effect; tags describe the fitted curve by direction and shape.

Row | SMILES | Potency | activity change, negative = inhibition
1 | c1ccc(-c2sc3ccccc3c2-c2ccc(OCCN3CCCC3)cc2)cc1 | inconclusive [inhibitor, single point] | 
2 | Cc1cccc(N2CCN(C(=O)CSc3ccc4c(c3)OCCO4)CC2)c1C | inconclusive [inhibitor, single point] | 
3 | COc1ccccc1NC(=O)Cn1cnc2c(cnn2-c2ccc(C)c(C)c2)c1=O | inconclusive [inhibitor, single point] | 
4 | N/C(=N\OC(=O)CC1CCCCC1)c1cccc(Br)c1 |  | inactive: 5.44%
5 | C=C1CCC(N(O)c2cc(C)on2)C(=C)CCC2C1CC2(C)C (configuration not stated) | inconclusive [inhibitor, partial curve] | 
6 | CC1Cc2ccccc2N1C(=O)/C=C/c1cccc(F)c1 (configuration not stated) | inconclusive [inhibitor, single point] | 
7 | N#CC1=C2SCN(Cc3ccco3)CN2C(=O)CC1c1ccccc1F (configuration not stated) |  | inactive: 9.06%
8 | CC(C)c1ccc(OCC(O)Cn2cnc3ccccc32)cc1 (configuration not stated) | inconclusive [inhibitor, partial curve] | 
9 | COC(=O)C[C@H]1c2cc(F)cc(F)c2S(=O)(=O)N1C1CCN(Cc2ccccc2)CC1 |  | inactive: -2.05%
10 | CCC(C)Nc1nc(-c2c[nH]c3ccccc23)cs1 (configuration not stated) | inconclusive [inhibitor, single point] | 
11 | C=CCOC(=O)C1=C(C)N=C2SCCC(=O)N2C1/C=C/c1ccccc1 (configuration not stated) | inconclusive [inhibitor, partial curve] | 
12 | O=C(COC(=O)c1cc([N+](=O)[O-])ccc1NCCO)Nc1cccc(S(=O)(=O)N2CCCC2)c1 | inconclusive [inhibitor, partial curve] | 
13 | O=C(Nc1cccnc1)Nc1ccc(Cl)cc1Cl |  | inactive: -28.6%
14 | COc1cccc(NC(=O)Cc2csc(NC(=O)Nc3ccccc3OC)n2)c1 | inconclusive [inhibitor, single point] | 
15 | CC(=O)c1ccc(NC(=O)Nc2ccccc2)cc1 |  | inactive: -4.06%
16 | O=C(O)CCCN1C(=O)C(=O)/C(=C(/O)c2ccccc2)C1/C=C/c1ccccc1 (configuration not stated) |  | inactive: 3.11%
17 | CCN(CC(=O)NCc1ccc(Cl)cc1)C(=O)c1ccc2cc(OC)ccc2c1 | inconclusive [inhibitor, partial curve] | 
18 | CC(Oc1ccccc1)C(=O)N1CCC2(CC1)CC(=O)c1ccccc1O2 (configuration not stated) | inconclusive [inhibitor, single point] | 
19 | O=C(Nc1ccccc1C(=O)NCC1CCCO1)c1ccccc1F (configuration not stated) |  | inactive: 2.29%
20 | COc1ccccc1-c1sc2ccccc2c1-c1ccccc1OC | inconclusive [inhibitor, single point] | 
21 | Cc1ccc(C2=CC(C)(c3ccc(C)cc3)Nc3nc(C(F)(F)F)nn32)cc1 (configuration not stated) | inconclusive [inhibitor, single point] | 
22 | C[C@H](NS(=O)(=O)OCC(Cl)(Cl)Cl)C1CC1c1ccccc1 (some centres not stated) |  | inactive: 29.8% [at 8.37 µM]
23 | O=C(C1c2ccccc2Oc2ccccc21)N1CCN(c2ccc(Cl)cc2)CC1 | inconclusive [inhibitor, single point] | 
24 | Cn1c(=N)n(CC(=O)c2ccc(Br)s2)c2ccccc21 | inconclusive [inhibitor, partial curve, poor fit] | 

Row | SMILES | Potency | activity change, negative = inhibition
25 | Cc1cccc(NC(=O)NCCCCc2ccccc2)c1 | inconclusive [inhibitor, single point] | 
26 | COCCNCC(O)CON=C1c2ccccc2-c2ccccc21 (configuration not stated) |  | inactive: -10.3%
27 | CCOC(=O)c1ccc(NC(=O)c2ccc(CN3CCc4ccccc4C3)cc2)cc1 | active: 1.41 µM | 
28 | CCOc1ccc(S(=O)(=O)N2CCCCC2)cc1NC(=O)CN1C(=O)NC(CC)(c2ccccc2)C1=O (configuration not stated) | inconclusive [inhibitor, partial curve] | 
29 | Cc1ccc(-c2csc3ncnc(NS(=O)(=O)c4ccc(Cl)cc4)c23)cc1 |  | inactive: 27.6%
30 | CSc1cccc(NC(=O)/C=C/c2cccc(Cl)c2)c1 | inconclusive [inhibitor, single point] | 
31 | COc1ccccc1NS(=O)(=O)c1ccc(NC(=O)CCNC(=O)c2ccco2)cc1 |  | inactive: 4.01%
32 | CCOc1ccc2ccccc2c1/C=N/NC(=O)c1ccc(C)nc1 | inconclusive [inhibitor, partial curve] | 
33 | Cc1cccnc1NC(=O)c1ccc(OCC2CCCO2)cc1 (configuration not stated) |  | inactive: 9.08%
34 | Cc1ccc(CNc2nc3ccccc3n2C)o1 |  | inactive: 11.9%
35 | COC(=O)c1cc2ccccc2n1S(=O)(=O)c1ccccc1 | inconclusive [inhibitor, single point] | 
36 | CCN(CC)C(=O)CC(c1cc(OC)c(OC)c(OC)c1)c1c(OC)cc(OC)c2ccc(=O)oc12 (configuration not stated) |  | inactive: 3.54%
37 | FC(F)(F)c1ccc(/C=N/n2c(COc3ccccc3)n[nH]c2=S)cc1 |  | inactive: 1.33%
38 | COc1ccc(-c2nc(SCC(=O)NC3CCCCC3)n[nH]2)cc1 | inconclusive [inhibitor, single point] | 
39 | ClCc1nnc(-c2cc3c(s2)CCCC3)o1 | inconclusive [inhibitor, single point] | 
40 | CCc1cc2c3c(c(=O)oc2cc1O)CCCC3 | inconclusive [inhibitor, partial curve] | 
41 | COc1ccc(OC)c2sc(NC(=O)C3CC3)nc12 | inconclusive [inhibitor, single point] | 
42 | Cc1cc(C(C)(C)C)cc(C)c1COC(=O)c1cccnc1 | inconclusive [inhibitor, single point] | 
43 | Clc1ccc2c(N/N=C/c3ccccc3Br)ccnc2c1 | inconclusive [inhibitor, partial curve] | 
44 | Nc1ncnc(Sc2ccccc2)c1[N+](=O)[O-] | inconclusive [inhibitor, single point] | 
45 | CCOC(=O)/C=c1\s/c(=C\c2ccccc2OC)c(=O)n1CC(=O)N1CCOCC1 | inconclusive [inhibitor, single point] | 
46 | COc1ccc(C(CNC(=O)c2cccc(S(=O)(=O)Nc3ccc(Br)cc3)c2)N(C)C)cc1 (configuration not stated) | inconclusive [inhibitor, single point] | 
47 | Cc1ccc(S(=O)(=O)NCCC(=O)NNC(=O)C2COc3ccccc3O2)cc1 (configuration not stated) | inconclusive [inhibitor, partial curve, poor fit] | 
48 | CC1CCCCN1CCNC(=O)CCc1nnc2n(Cc3ccccc3)c(=O)c3ccccc3n12 (configuration not stated) | inconclusive [inhibitor, partial curve] | 

Row | SMILES | Potency | activity change, negative = inhibition
49 | O=C(Nc1nccs1)c1cncc(Br)c1 | inconclusive [inhibitor, single point] | 
50 | Cc1cc(C)nc(SCC(=O)N2CCCCC2)n1 |  | inactive: 9.44%
51 | CC(=O)c1ccc(S(=O)(=O)Nc2ccc(S(=O)(=O)N3CCCCC3)cc2)cc1 |  | inactive: -19.9%
52 | Cc1cccn2c(=O)c(/C=C(\C#N)S(=O)(=O)c3ccccc3)c(N3CCCCC3)nc12 | inconclusive [inhibitor, partial curve] | 
53 | Cc1nc(N2CCOCC2)c2c(C)c(C(=O)Nc3ccc(F)cc3Cl)sc2n1 | inconclusive [inhibitor, partial curve, poor fit] | 
54 | C=CCN1C(C(=O)c2ccccc2)=C(OC(=O)COc2ccccc2)c2ccccc2S1(=O)=O | inconclusive [inhibitor, single point] | 
55 | CCOC(=O)c1sc(NC(=O)Nc2ccccc2Cl)cc1C | inconclusive [inhibitor, partial curve] | 
56 | Oc1ccc(-c2nnc(SCC3CCCCC3)o2)cc1 |  | inactive: -14%
57 | CN(c1ccccc1)S(=O)(=O)c1cccc(C(=O)NNC(=O)c2ccccc2)c1 | inconclusive [inhibitor, full curve] | 
58 | Cc1ccc(NC(=O)CN2C(=O)S/C(=C/c3ccc(-c4cc(C(=O)O)ccc4C)o3)C2=O)cc1C | inactive | 
59 | CC1CCN(c2ccccc2NC(=S)NC(=O)c2ccco2)CC1 | inconclusive [inhibitor, single point] | 
60 | O=[N+]([O-])c1ccc(-n2nnnc2-c2ccccc2)c([N+](=O)[O-])c1 | active: 35.5 µM | 
61 | CCCCNC(=S)NCC(c1ccccc1)c1c[nH]c2ccccc12 (configuration not stated) | inconclusive [inhibitor, single point] | 
62 | O=C(CN1N=C(C(F)(F)F)CC1(O)c1ccc([N+](=O)[O-])cc1)c1ccccc1 (configuration not stated) |  | inactive: -8.67%
63 | Clc1ccc(N2CCN(c3ccnc(Cl)n3)CC2)cc1 | inconclusive [inhibitor, single point] | 
64 | Cc1onc(-c2ccc(Cl)cc2)c1-c1ccnn1S(=O)(=O)c1cccc(C(F)(F)F)c1 | inconclusive [inhibitor, full curve] | 
65 | CN(C)/C=C1/Oc2c(ccc3ccccc23)C1=O | inconclusive [inhibitor, single point] | 
66 | Cc1ccc(NC(=O)c2ccc(C(C)(C)C)cc2)cc1-n1cnnn1 | inconclusive [inhibitor, single point] | 
67 | O=C(/C=C/c1ccc(S(=O)(=O)N2CCOCC2)cc1)NCc1ccccc1F | inconclusive [inhibitor, single point] | 
68 | CCOC(=O)N1CCN(C(=O)CSCc2ccccc2Cl)CC1 |  | inactive: 7.06%
69 | CCN1/C(=C/c2sc(-c3ccccc3C)c[n+]2C)Sc2ccccc21 | active: 3.55 µM | 
70 | COc1ccc(/C(C)=N/NC(=O)c2ccc(N(C)C)cc2)cc1 |  | inactive: -10.4%
71 | CCCNC(=O)NC(C(=O)OC)C12CC3CC(CC(C3)C1)C2 (configuration not stated) |  | inactive: 3.03%
72 | COc1ccc2nc(NC(=O)c3cccc(OCc4c(C)noc4C)c3)sc2c1 | active: 0.355 µM | 
